Test results published in PubChem BioAssay AID624417 (National Center for Advancing Translational Sciences (NCATS), 2012).
Screen size: about 410,000 compounds; about 6,400 (1.6%) were called active. The shares of active, inactive and inconclusive entries below differ from those in the screen. Calls come from the whole dose curve; as a rule, active = well fitted inhibition curve with a large enough effect; inconclusive = small, poorly fitted or top-dose-only effect; inactive = no such curve, though single readings can be large or run the other way. Potencies beside an inconclusive call are fits to weak or partial responses and may not hold up.

target: Glucagon-like peptide 1 receptor (Homo sapiens) (UniProt P43220); test: qHTS of GLP-1 Receptor Inverse Agonists (Inhibition Mode); conditions: HEK293 GLP-1R CRE-luciferase, luminescence, 24 h, GLP-1R form is constitutively active; activity change, negative = inhibition: at 38.3 µM (top of the series) unless noted; note: nearly all actives have a fitted effect of over 55% in size
UniProt P43220, sequence (P43220 whole entry, looked up): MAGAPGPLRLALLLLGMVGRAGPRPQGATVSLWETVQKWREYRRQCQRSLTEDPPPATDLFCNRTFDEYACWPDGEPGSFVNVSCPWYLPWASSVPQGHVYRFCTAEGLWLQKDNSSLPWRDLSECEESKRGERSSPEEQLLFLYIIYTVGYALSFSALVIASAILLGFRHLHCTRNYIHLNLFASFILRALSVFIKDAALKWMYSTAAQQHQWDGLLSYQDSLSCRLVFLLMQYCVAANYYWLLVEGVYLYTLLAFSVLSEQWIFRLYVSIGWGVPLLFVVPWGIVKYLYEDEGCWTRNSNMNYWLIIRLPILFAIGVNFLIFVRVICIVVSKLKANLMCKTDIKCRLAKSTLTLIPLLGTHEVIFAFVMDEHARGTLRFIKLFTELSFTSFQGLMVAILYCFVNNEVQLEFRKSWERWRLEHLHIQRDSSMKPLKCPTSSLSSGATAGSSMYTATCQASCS
In short: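 Stable HEK293 clone (constitutively active GLP-1R + cAMP-response luciferase); 200 cells/uL plated, 12 h pre-culture, compound 24 hr, 37 deg C/5% CO2; detection reagent 12 min RT; luminescence.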
% is set by controls: 0 for no effect and ±100 for the full control effect; potency is the fitted concentration of half-maximal effect; tags give direction and shape of the fitted curve.

Activity change, negative = inhibition, inactive:
CN(CC(=O)Nc1c(Cl)cccc1Cl)C(=O)c1cc(S(=O)(=O)N(C)C)ccc1N1CCCC1 -6.26%
COc1cccc(OC)c1OCCN1CCC(C(=O)NC(c2ccc3c(c2)OCO3)c2ccccn2)CC1 (stereo not drawn) -21.2%
Cc1cccn2c(=O)c3cc(C#N)c(=O)n(-c4nnc(SCc5ccc(F)cc5)s4)c3nc12 1.62%
COc1cccc(NC(=O)CN(C)C(=O)CC2CCCC2)c1 -7.06%
Cn1c(SCC(=O)Nc2nc3ccccc3s2)ncc(C(=O)Nc2ccc(Cl)cc2)c1=O 7.73%
O=C(N/N=C\c1cc2c(cc1Cl)OCO2)c1cccnc1 15.9%
Cc1cccc(-c2nc3cc([N+](=O)[O-])ccc3o2)c1 66.7%
CCOC(=O)c1ccc(-n2c(CN3CCC(O)CC3)nc3ccc([N+](=O)[O-])cc3c2=O)cc1 0.461%
CCOC(=O)c1c(C)[nH]c(C)c1S(=O)(=O)N1CCCC(C(=O)Nc2cccc(CC)c2)C1 (stereo not drawn) -18%
Cc1ccc(C(=O)NC(=S)N(C)C2CCCCC2)cc1 21%
CC1CCCCN1C(=O)c1ccc(C(=O)Nc2ccc(F)cc2)cc1 (stereo not drawn) -9.45%
O=C(NC1CCCC1)c1ccccc1OCc1ccccc1 0.509% [at 0.307 µM]
CCOC(=O)C1CN(S(=O)(=O)c2ccc(C)cc2)c2ccccc2O1 (stereo not drawn) 5.95%
CCOC(=O)C1=C(C)n2c(s/c(=C/c3cccc([N+](=O)[O-])c3)c2=O)=NC1c1ccc(O)c(OC)c1 (stereo not drawn) 0%
O=C(COc1ccccc1/C=C\c1[nH]c(=O)[nH]c(=O)c1[N+](=O)[O-])Nc1ccccc1 8.2%
CCOc1ccc(CN2C(=O)C(=O)c3cccc(C)c32)cc1OC 9.03%

Potency, inconclusive:
C=C(C)c1cccc(C(C)(C)NC(=O)N2CCN(c3ccccc3OC)CC2)c1 8.91 µM [inhibitor, partial curve, poor fit]
O=S(=O)(Cc1ccccc1Cl)NCCc1ccccc1 10 µM [inhibitor, partial curve]
COc1cc(S(=O)(=O)NC2CCCC2)ccc1Cl 11.2 µM [inhibitor, single point]
O=C(NCCCN1CCOCC1)c1ccc2c(=O)n(Cc3ccccc3)c(=S)[nH]c2c1 1 µM [inhibitor, full curve, poor fit]
Cc1ccc(Cc2c(-c3ccc(C)cc3)nc3ccc(Br)cn23)cc1 20 µM [inhibitor, single point]
CCN1CCN(c2ncc3c(n2)CCN(Cc2cccc(F)c2F)C3)CC1 10 µM [inhibitor, partial curve]
O=C(O)C1CN(C(=O)c2cccc(Br)c2)C1 28.2 µM [inhibitor, single point]
CC1CC(C)(C)N(C(=O)CN2C(=O)c3ccccc3C2=O)c2ccccc21 (stereo not drawn) 10 µM [inhibitor, single point]
O=C(c1ccc(Cl)c(S(=O)(=O)N2CCCCC2)c1)N1CCCC(C(F)(F)F)C1 (stereo not drawn) 12.6 µM [inhibitor, single point]
Cc1ccc(S(=O)(=O)N(CC(=O)Nc2ccccc2C(=O)O)c2ccccc2C)cc1 25.1 µM [inhibitor, partial curve, poor fit]
COCCCNc1nc(CC(C)C)nc2c1nnn2Cc1ccccc1 10 µM [inhibitor, partial curve, poor fit]
CN(C)CCCN(C(=O)c1cc(-c2cccs2)nc2ccccc12)c1nc2ccc(F)cc2s1 2.51 µM [inhibitor, full curve, poor fit]
O=C(c1cccc(Br)c1)N1CCN(c2cnn(-c3ccccc3)c(=O)c2Cl)CC1 12.6 µM [inhibitor, single point]
Fc1ccc(C(NCCc2ccc(Cl)cc2)c2nnc(-c3ccccc3Cl)o2)cc1 (stereo not drawn) 10 µM [inhibitor, partial curve, poor fit]
CC1(C)CC(=O)C=C(NC2=CC3OC(c4ccccc4)OCC3OC2=O)C1 (stereo not drawn) 2.51 µM [inhibitor, partial curve, poor fit]
O=C(Nc1ccc(Cl)c(C(F)(F)F)c1)c1nc2ccccc2nc1N1CCCCC1 10 µM [inhibitor, partial curve, poor fit]
Cc1nn(Cc2ccccc2Cl)c2sc(C(=O)NC(C)(C)C)cc12 28.2 µM [inhibitor, single point]
COc1ccccc1Nc1nc(N)nc(N)c1S(=O)(=O)c1ccccc1 28.2 µM [inhibitor, single point]
Cc1cc2c(cc1C)NC1(C(=O)Nc3ccccc31)C1=C(CC(C)(C)CC1=O)N2 (stereo not drawn) 11.2 µM [inhibitor, single point]
COc1cccc(NC(=O)/C(C#N)=C/c2c(C)n(Cc3ccccc3)c3ccccc23)c1 28.2 µM [inhibitor, single point]
COc1ccccc1C(=O)Nc1ccccc1C(=O)NC1CCCCC1 15.8 µM [inhibitor, partial curve, poor fit]
c1ccc(-c2cnc(CN3CCN(c4ccccc4)CC3)o2)cc1 28.2 µM [inhibitor, single point]
COC(=O)c1ccc(Nc2cc(C)nc3ccccc23)cc1 10 µM [inhibitor, partial curve]
COc1ccc(N2C(=O)C3C4C=CC(C5CC45)C3C2=O)c([N+](=O)[O-])c1 (stereo not drawn) 8.91 µM [inhibitor, partial curve, poor fit]
Cc1nc2c(OCc3cccc(Cl)c3)cccn2c1N(C)Cc1cccs1 12.6 µM [inhibitor, single point]
CCN1CCN(C(=O)C2CCN(c3nnc(C)c4c(C)n(-c5ccc(C)cc5)nc34)CC2)CC1 11.2 µM [inhibitor, partial curve, poor fit]
CSc1ccc(/C=C/c2nc3ccccc3n2S(=O)(=O)c2ccc(Br)cc2)cc1 7.94 µM [inhibitor, partial curve, poor fit]
O=C(Nc1ccc(-c2nc3cccnc3s2)cc1)C1CCCO1 (stereo not drawn) 7.08 µM [inhibitor, partial curve, poor fit]
Cc1ccc(N2CCN(Cc3nnc(-c4ccccc4F)o3)CC2)c(C)c1 17.8 µM [inhibitor, single point]
O=C(C1CCCN(S(=O)(=O)c2ccccc2)C1)N1CCN(c2ccc(F)cc2)CC1 (stereo not drawn) 10 µM [inhibitor, single point]
COc1ccc(N=C2NC(=O)S/C2=C\c2ccc(N(C)C)cc2)cc1 7.94 µM [inhibitor, partial curve, poor fit]
Cc1cccc(CC(=O)NCCS(=O)(=O)N2CCN(c3cccc(Cl)c3)CC2)c1 31.6 µM [inhibitor, partial curve, poor fit]
O=C(Cn1cccc1C(=O)c1ccccc1)NCCC1=CCCCC1 10 µM [inhibitor, partial curve]
CC1Cc2ccccc2N1C(=O)CN1C(=O)NC(C)(CCc2ccccc2)C1=O (stereo not drawn) 10 µM [inhibitor, single point]
O=CN1N=C(c2ccccc2)CC1c1ccc(Cl)cc1 (stereo not drawn) 25.1 µM [inhibitor, single point]
COc1ccc(CNC(=O)Nc2nc(C(N)Cc3ccc(Cl)cc3)cs2)cc1 (stereo not drawn) 31.6 µM [inhibitor, single point]
O=C(OCc1ccccc1)c1c(-c2ccccc2)oc2c1C(OCCO)CCC2 (stereo not drawn) 10 µM [inhibitor, partial curve, poor fit]
CCn1c2ccccc2c2cc(NC(=O)C3CCN(S(=O)(=O)c4cccs4)CC3)ccc21 2.51 µM [inhibitor, full curve, poor fit]
COc1cccc(C(C)(O)c2nc(/C=C/c3ccccc3)cs2)c1 (stereo not drawn) 10 µM [inhibitor, partial curve, poor fit]
O=C1C=C(c2ccc3c(c2)OCCO3)C[C@@H](c2ccc(F)cc2)C1 10 µM [inhibitor, partial curve, poor fit]
COc1cc2c(cc1OC)C(c1ccc(Br)cc1)NCC2 (stereo not drawn) 11.2 µM [inhibitor, partial curve, poor fit]
CCOC(=O)c1c(NC(=O)C2CCCCC2C(=O)O)sc2c1CCCCC2 (stereo not drawn) 12.6 µM [inhibitor, single point]
O=S1(=O)c2c(F)cccc2OC(COCc2ccccc2)CN1C1CCCC1 (stereo not drawn) 11.2 µM [inhibitor, partial curve, poor fit]
CC1CCN(C(=O)COC(=O)c2n[nH]c3ccccc23)CC1 28.2 µM [inhibitor, single point]
O=C(CSc1nnc(COc2ccc(F)cc2)o1)N1c2ccccc2CCc2ccccc21 11.2 µM [inhibitor, single point]
Cc1ccc(N(Cc2ccccc2)C(=O)c2cc(S(=O)(=O)N3CCOCC3)ccc2C)cc1 10 µM [inhibitor, partial curve, poor fit]
COc1ccc(/C=C/C(=O)Nc2cccc(F)c2)cc1S(=O)(=O)N1CCOCC1 10 µM [inhibitor, partial curve]
